Some of the results follow.
T1: UNK ZnF1-3 (human, UniProt Q9C0B0 31-174)
T1 sequence: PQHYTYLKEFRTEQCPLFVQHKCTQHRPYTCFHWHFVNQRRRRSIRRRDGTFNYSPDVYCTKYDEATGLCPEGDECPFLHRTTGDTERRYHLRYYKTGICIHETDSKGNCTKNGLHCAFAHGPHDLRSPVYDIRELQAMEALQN

B1: chr12:39756943:39756944:-_ENSG00000139116_ENST00000544797|hu_mus|hu_hu_hu_mus_False|48_98 (ssRNA)
RNA: GGGAGUUCUACAGUCCGACGAUCGGUUUGGCUGUUACCCCCGAGGGAAUCCUGCAAGAGUCUUGUCAGCUUAGAGUCUCUGUAAGGGACAUGUGUGGCUCUCUUGCUCUUGUCCCCCAAGGCGCUGAUUACAUUCCCAAGAGCCAACAGAGGAUUGAGCAUCA
B2: chr12:39763582:39763583:-_ENSG00000139116_ENST00000544797|hu_mus|hu_hu_hu_mus_False|8_8 (ssRNA)
RNA: GGGAGUUCUACAGUCCGACGAUCCUCUAGGAACUGGGCAUUCACUUUGAAUUCAGGAGGGGGCAGCCCGUUUUUAAUCGCUGAGGUCUUUUUCUCAUCAAUACUCUUGAACAGGUGUCUAACAGCACGAGAAAUAAUGCCCUGCAACAGAGGAUUGAGCAUCA
B3: chr19:36933551:36933552:+_ENSMUSG00000024811_ENSMUST00000025729|mus_hu|FALSE|FALSE (ssRNA)
RNA: GGGAGUUCUACAGUCCGACGAUCGUGGCCUUUAAAUUCAUAUGCUAAUCUUUCUUUUAACUGUGGUGUGGGAGCCAAGUCUAUAGCACUUUUAUUGUGACAAUUGAGCAGUGUUGGGUCUGCACCAUAACUUAAGAGAAGAGACAACAGAGGAUUGAGCAUCA
B4: chr16:94651144:94651145:+_ENSMUSG00000040785_ENSMUST00000117648|mus_hu|mus_mus_mus_hu_True|8_28 (ssRNA)
RNA: GGGAGUUCUACAGUCCGACGAUCAUUUUCUUGAAUCAAGUGGCGAAUAACAUAGUCCACUGCUUCAUUUAGAAAAUUUCUGCUAGAAAAACAGGUUGUAUAGUCUUCCGUGCUCAGAACUUUCCAAGAGAGCAGCUCUUUGAGCAACAGAGGAUUGAGCAUCA
B5: chr9:122046315:122046316:+_ENSMUSG00000038145_ENSMUST00000120173|mus_mus|motif|central (ssRNA)
RNA: GGGAGUUCUACAGUCCGACGAUCAAGUUUGGUCUGGGUGUCUAUGACUUCAUAGAGACGCACAAUGUUGGGGUGCUGCACGGGUUUCAUGCACCUCACUUCCUGGAAGAGAUGACCAGUGGCUAGAGUGUCCAGCUUCGUCUUCAACAGAGGAUUGAGCAUCA
B6: chr10:123500321:123500322:-_ENSG00000107669_ENST00000369043|hu_hu|FALSE|FALSE (ssRNA)
RNA: GGGAGUUCUACAGUCCGACGAUCACGUUAAGAAACUACACACAACAAAUAUUUGCAAAAUGAAUGAAAAAUAGGAUAAAGCUAUUUAAAAGUCAACAUAGUAAUAUUUAUCUAAAUAAUUUUAAUCAAAUGUACAACAUAUUUCAACAGAGGAUUGAGCAUCA
B7: 12004425_12006022_1406_3pUTR_ENSMUSG00000046139_ENSMUST00000061618|mouse|control|control (ssRNA)
RNA: GGGAGUUCUACAGUCCGACGAUCCUGGUAAUAGAAAUCAUCCAGGUAGGGAUCAGUGCUCUGCAGCUGCAUCAUCUGUAUUUUAGAGACCCAAUCCUUCUCCCGCUGCAACAUUAGAUUAGCAUAUGGAUCCUUCCGGAGAUGCAACAGAGGAUUGAGCAUCA
B8: chr12:103220247:103220248:+_ENSMUSG00000041781_ENSMUST00000047357|mus_mus|FALSE|FALSE (ssRNA)
RNA: GGGAGUUCUACAGUCCGACGAUCCAGGGAAUCAAUAAUGUCCACAGAGAAGUGUUCAUCCCAGCCACAGUCCAACAAAAACCUAAACUCAUCAACCUGGAGAAGAUAGCAAAGAGCGGACUCUUCUUGAACCCCAGAGAGGGUCAACAGAGGAUUGAGCAUCA
B9: chr6:160100356:160100357:-_ENSG00000112096_ENST00000546260|hu_hu|FALSE|FALSE (ssRNA)
RNA: GGGAGUUCUACAGUCCGACGAUCGCUGGGAUCAUUAGGGUAUGACUGAAAGUGAGAAACAGUAAUUUGUAAAACAUUUACCUAAUAAUAGCUUUCCCAAACAGUACUUCCCCUGGAAUUAAAACAGGAAAUACAAUUUAUGUUCAACAGAGGAUUGAGCAUCA
B10: chr7:44664009:44664010:+_ENSG00000105953_ENST00000222673|hu_hu|FALSE|FALSE (ssRNA)
RNA: GGGAGUUCUACAGUCCGACGAUCAGAAUAGCACCGAAUCUGUUGAAAUGUCCUAGCUGCUGCUGGUCUGUUUUGUGAAAAUGUCUUAACAGUCUGGGAAGCCGUCAAUGGCCUCAACUUAGCAGCACAAGUCCUUAAAUGAAACAACAGAGGAUUGAGCAUCA
B11: chr10:71921676:71921677:-_ENSG00000079332_ENST00000373241|hu_hu|motif|central (ssRNA)
RNA: GGGAGUUCUACAGUCCGACGAUCCACACUGCUGAAGCCAUUGUAGAUCCACUCAAAGAUGAAAGACAUUAUUAAUGCUUACGGCGGCCUGAGGGGCUCCUCCGGCAAAACAGCGGCUGGCUCGGACCCUCCCUCAGAGCACACCAACAGAGGAUUGAGCAUCA
B12: chr8:74858975:74858976:-_ENSG00000154582_ENST00000284811|hu_hu|motif|central (ssRNA)
RNA: GGGAGUUCUACAGUCCGACGAUCAACCUUGUACGUAAAAUACAUGCAUACUUUCGAUAGCACAUGUGAAGGUAUCUCUCGGAAAUUGACCUCAUUGGUUUCGUUCUCAGCAAACUGACCUGGGCCACUCAACAUGGCUUUUAUCAACAGAGGAUUGAGCAUCA
B13: chr2:9570881:9570882:+_ENSG00000119203_ENST00000238112|hu_mus|hu_hu_hu_mus_False|28_48 (ssRNA)
RNA: GGGAGUUCUACAGUCCGACGAUCACUUGUCUUCUGAAGGAACCAGGGCAGGGCUCCACAGUGAUCCAAAUGGAAAUGACUGAUCAAUAGGAGAUCAAUCUCAGCUGGGUCAAUUAAGUCAAUGUAAGGAAGGGCAUCCAUUCCCAACAGAGGAUUGAGCAUCA
B14: chr4:151706827:151706828:+_ENSMUSG00000028936_ENSMUST00000139685|mus_mus|motif|central (ssRNA)
RNA: GGGAGUUCUACAGUCCGACGAUCCACUGUGUCUCAAGCCCUCCUCGAGACAGGCACCAGAUAUAACCAACCACCAGCUCGGAGACUCGGGCUGGCCGGAGCCCACCACCCAGCCUCUCGUCUACUUGCUCUGUCAGAUGCAGCCAACAGAGGAUUGAGCAUCA

The binders below were run against T1, UNK ZnF1-3 (assay: nsRBNS (natural sequence RNA bind-n-seq); RBNS binding buffer (assumed for nsRBNS): 25 mM Tris pH 7.5, 150 mM KCl, 3 mM MgCl2, 0.01% Triton X-100, 500 ug/ml BSA, 20 U/ml SUPERase-In, 4 C; UNK is unkempt and MSI1 is Musashi-1; names of the RNAs are library labels; protein concentration not given here; high values mean tight binding).
For B1, the binding signal was 0.618 enrichment R.
B2 was tested, and the binding signal was 1.28 enrichment R.
Binder B3 has a binding signal of 2.04 enrichment R.
With B4 the binding signal was 0.728 enrichment R.
Work on B5 yielded a binding signal of 0.825 enrichment R.
With B6 the binding signal was 0.853 enrichment R.
B7 gave a binding signal of 1.37 enrichment R.
Binder B8 has a binding signal of 1.18 enrichment R.
B9 gave a binding signal of 1.68 enrichment R.
B10 was tested, and the binding signal was 1.68 enrichment R.
Work on B11 yielded a binding signal of 1.38 enrichment R.
B12 was tested, and the binding signal was 0.523 enrichment R.
B13 showed a binding signal of 1.12 enrichment R.
B14 was tested, and the binding signal was 1.01 enrichment R.
